Assay results from the supplement of paper PMC3334620.
The full ranking holds about 33,000 sequences; the median of “E-score (-0.5 to 0.5)” is about -0.036, and the highest 2% start at about 0.37. Some of the results follow.

The sequences below were run against T1, Yer064c (UniProt P40041) (assay: PBM E-score (8-mer binding enrichment) (E-score (-0.5 to 0.5)); higher = stronger / more preferred TF binding; most listed sequences are background and not binding sites). Settings: protein concentration: 200 nM; construct: GST-full length.
T1 sequence: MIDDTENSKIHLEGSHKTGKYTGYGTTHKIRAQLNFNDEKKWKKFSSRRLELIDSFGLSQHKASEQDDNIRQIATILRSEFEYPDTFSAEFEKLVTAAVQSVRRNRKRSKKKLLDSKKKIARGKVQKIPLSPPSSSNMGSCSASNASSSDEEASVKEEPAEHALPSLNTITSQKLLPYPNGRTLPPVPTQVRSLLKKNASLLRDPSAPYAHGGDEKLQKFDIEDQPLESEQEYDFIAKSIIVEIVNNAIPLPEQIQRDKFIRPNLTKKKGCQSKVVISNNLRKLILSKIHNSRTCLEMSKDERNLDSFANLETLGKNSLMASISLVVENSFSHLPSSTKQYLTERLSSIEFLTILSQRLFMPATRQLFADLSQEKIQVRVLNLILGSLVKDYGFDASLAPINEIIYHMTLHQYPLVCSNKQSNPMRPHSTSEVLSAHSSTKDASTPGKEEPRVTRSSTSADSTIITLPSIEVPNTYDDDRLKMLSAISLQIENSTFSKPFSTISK
How it was run: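 Full-length yeast transcription factors or their DNA-binding domains, GST-tagged and expressed with PURExpress, were applied at about 100-200 nM to universal all-10-mer Agilent arrays. These arrays had been made double-stranded by primer extension on fresh or once-stripped slides. Detection used fluorescent anti-GST, normalisation used masliner, and E-scores for ungapped eight-base words pooled with reverse complements came from the Universal PBM Analysis Suite.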

**Q.** Which “PBM E-score” value does the source give for GATGAGGA here?
**A.** The value was -0.19.

**Q.** For ATTCGAGC, which “PBM E-score” value is on record?
**A.** Its value is 0.00455.

**Q.** GTATGAAA was tested. Which “PBM E-score” value did it give?
**A.** Its value is -0.0135.

**Q.** With TATAGACA as the sequence, how does the “PBM E-score” value read?
**A.** Its value is 0.121.

**Q.** With AGGCGTTC as the sequence, how does the “PBM E-score” value read?
**A.** Its value is -0.237.

**Q.** GGATTGAA was tested. Which “PBM E-score” value did it give?
**A.** The value was 0.102.

**Q.** GGGGGTAA was tested. Which “PBM E-score” value did it give?
**A.** Its value is -0.23.

**Q.** Which “PBM E-score” value does the source give for GGGGGGGA here?
**A.** The value was -0.0347.

**Q.** With AAGTAACG as the sequence, how does the “PBM E-score” value read?
**A.** The value was 0.0322.

**Q.** Which “PBM E-score” value does the source give for ACAGGGTA here?
**A.** Its value is -0.193.

**Q.** How did the “PBM E-score” value turn out when AAGTTAGT was run?
**A.** Its value is 0.306.

**Q.** With GGGGACAA as the sequence, how does the “PBM E-score” value read?
**A.** Its value is -0.164.

**Q.** For CACGAGTA, which “PBM E-score” value is on record?
**A.** Its value is 0.0787.

**Q.** With AACTACTG as the sequence, how does the “PBM E-score” value read?
**A.** The value was -0.0219.

**Q.** With GAATACGA as the sequence, how does the “PBM E-score” value read?
**A.** Its value is 0.0413.

**Q.** For TCACATGA, which “PBM E-score” value is on record?
**A.** Its value is 0.269.

**Q.** How did the “PBM E-score” value turn out when AGTTGCGC was run?
**A.** Its value is -0.246.

**Q.** How did the “PBM E-score” value turn out when ATAGACAA was run?
**A.** The value was -0.107.

**Q.** Which “PBM E-score” value does the source give for ATGGATAG here?
**A.** Its value is 0.1.

**Q.** For AACAGGGT, which “PBM E-score” value is on record?
**A.** The value was -0.202.

**Q.** How did the “PBM E-score” value turn out when CCCCTGCC was run?
**A.** The value was -0.204.

**Q.** For AGTTTAAT, which “PBM E-score” value is on record?
**A.** Its value is 0.163.

**Q.** Which “PBM E-score” value does the source give for AATCTAAG here?
**A.** The value was 0.0952.

**Q.** With TCTTGGCA as the sequence, how does the “PBM E-score” value read?
**A.** The value was 0.129.

**Q.** How did the “PBM E-score” value turn out when AAACCGCT was run?
**A.** Its value is -0.0915.

**Q.** How did the “PBM E-score” value turn out when CCTGAGCC was run?
**A.** Its value is -0.0314.

**Q.** Which “PBM E-score” value does the source give for ACATGGTC here?
**A.** Its value is 0.0496.

**Q.** How did the “PBM E-score” value turn out when CCAACATC was run?
**A.** The value was -0.138.

**Q.** For ACACGTCT, which “PBM E-score” value is on record?
**A.** Its value is 0.0645.

**Q.** How did the “PBM E-score” value turn out when AAACGAGC was run?
**A.** The value was -0.17.

**Q.** How did the “PBM E-score” value turn out when CTACACCA was run?
**A.** Its value is -0.052.

**Q.** How did the “PBM E-score” value turn out when CTTGTACA was run?
**A.** The value was -0.114.

**Q.** With ATTCACCA as the sequence, how does the “PBM E-score” value read?
**A.** Its value is 0.0678.

**Q.** How did the “PBM E-score” value turn out when CGTTCTGC was run?
**A.** Its value is -0.0876.

**Q.** CTCGGCAC was tested. Which “PBM E-score” value did it give?
**A.** Its value is -0.148.

**Q.** How did the “PBM E-score” value turn out when ACGTGTGG was run?
**A.** Its value is -0.0723.

**Q.** With AAGGCTAC as the sequence, how does the “PBM E-score” value read?
**A.** Its value is -0.0556.

**Q.** ACCAAGCC was tested. Which “PBM E-score” value did it give?
**A.** The value was -0.0298.

**Q.** For AGTTGTGG, which “PBM E-score” value is on record?
**A.** The value was 0.108.

**Q.** How did the “PBM E-score” value turn out when CCCAGAAA was run?
**A.** Its value is 0.00184.

**Q.** With TAGCCGGA as the sequence, how does the “PBM E-score” value read?
**A.** The value was 0.0623.

**Q.** How did the “PBM E-score” value turn out when GGGCAAAC was run?
**A.** Its value is -0.227.

**Q.** How did the “PBM E-score” value turn out when GACGCCAA was run?
**A.** The value was -0.217.

**Q.** With AACGACAG as the sequence, how does the “PBM E-score” value read?
**A.** The value was -0.0481.

**Q.** How did the “PBM E-score” value turn out when GAAGAGTA was run?
**A.** The value was 0.0801.

**Q.** For CGGGAACA, which “PBM E-score” value is on record?
**A.** Its value is -0.049.

**Q.** CCAAGCTA was tested. Which “PBM E-score” value did it give?
**A.** Its value is -0.0602.

**Q.** AAATAGAG was tested. Which “PBM E-score” value did it give?
**A.** Its value is 0.0644.

**Q.** With CCGATTTA as the sequence, how does the “PBM E-score” value read?
**A.** The value was 0.00468.

**Q.** With ACCTAAGA as the sequence, how does the “PBM E-score” value read?
**A.** Its value is 0.0483.

**Q.** For AGGAATAA, which “PBM E-score” value is on record?
**A.** The value was -0.0382.

**Q.** For ATACCATG, which “PBM E-score” value is on record?
**A.** Its value is 0.061.

**Q.** How did the “PBM E-score” value turn out when ACAAATCT was run?
**A.** Its value is -0.0329.

**Q.** GGCTCGCA was tested. Which “PBM E-score” value did it give?
**A.** Its value is -0.116.

**Q.** ACCCTGCC was tested. Which “PBM E-score” value did it give?
**A.** The value was -0.154.

**Q.** For GCACAATA, which “PBM E-score” value is on record?
**A.** The value was -0.00738.

**Q.** ATTGGAAG was tested. Which “PBM E-score” value did it give?
**A.** The value was 0.0397.

**Q.** How did the “PBM E-score” value turn out when ATGTATCC was run?
**A.** Its value is -0.0288.

**Q.** Which “PBM E-score” value does the source give for GATGCGAA here?
**A.** The value was 0.00178.

**Q.** How did the “PBM E-score” value turn out when TGTCGAAA was run?
**A.** The value was 0.0448.

**Q.** With AGAAACTG as the sequence, how does the “PBM E-score” value read?
**A.** The value was -0.00757.

**Q.** With GGCAATAA as the sequence, how does the “PBM E-score” value read?
**A.** The value was 0.0181.

**Q.** How did the “PBM E-score” value turn out when CTCCTGCC was run?
**A.** The value was -0.113.

**Q.** How did the “PBM E-score” value turn out when CGACTTAA was run?
**A.** The value was 0.232.

**Q.** With CGAACTGC as the sequence, how does the “PBM E-score” value read?
**A.** The value was -0.181.

**Q.** AGTAAGGG was tested. Which “PBM E-score” value did it give?
**A.** Its value is -0.00318.

**Q.** How did the “PBM E-score” value turn out when ATCTAGTG was run?
**A.** The value was 0.0154.

**Q.** Which “PBM E-score” value does the source give for CAATAGTG here?
**A.** Its value is 0.0438.

**Q.** With GGTGGAGA as the sequence, how does the “PBM E-score” value read?
**A.** Its value is -0.114.

**Q.** Which “PBM E-score” value does the source give for CAGATTGA here?
**A.** Its value is 0.107.

**Q.** With CTGGTGAC as the sequence, how does the “PBM E-score” value read?
**A.** Its value is 0.194.

**Q.** How did the “PBM E-score” value turn out when GGAAAGCA was run?
**A.** Its value is -0.12.

**Q.** With GATCAAGC as the sequence, how does the “PBM E-score” value read?
**A.** Its value is 0.0352.

**Q.** Which “PBM E-score” value does the source give for AGGGGTGG here?
**A.** The value was -0.0803.

**Q.** Which “PBM E-score” value does the source give for CAAGACTG here?
**A.** Its value is 0.175.

**Q.** CCGCCAAG was tested. Which “PBM E-score” value did it give?
**A.** Its value is -0.149.

**Q.** With CACACGTG as the sequence, how does the “PBM E-score” value read?
**A.** The value was 0.021.

**Q.** For GAGCACCA, which “PBM E-score” value is on record?
**A.** Its value is -0.092.

**Q.** How did the “PBM E-score” value turn out when CATCCGTA was run?
**A.** Its value is 0.0341.

**Q.** Which “PBM E-score” value does the source give for ACAAGACG here?
**A.** The value was -0.027.

**Q.** For CGCCTGGC, which “PBM E-score” value is on record?
**A.** The value was -0.0853.

**Q.** Which “PBM E-score” value does the source give for GAAGGTGA here?
**A.** Its value is 0.0997.

**Q.** ACTACTGA was tested. Which “PBM E-score” value did it give?
**A.** Its value is 0.316.

**Q.** Which “PBM E-score” value does the source give for AGTGCTTC here?
**A.** Its value is -0.031.

**Q.** For GGGATGAA, which “PBM E-score” value is on record?
**A.** Its value is -0.0864.

**Q.** With AAAACTTC as the sequence, how does the “PBM E-score” value read?
**A.** Its value is -0.129.
